# Measurements as given in PubChem BioAssay AID1745845 (National Center for Advancing Translational Sciences (NCATS), 2022).
# Among all 360,000 compounds or so, about 2,600 (0.72%) were called active. This list was built around the results that the source calls inconclusive (neither active nor inactive); the mix of calls is not that of the screen. Calls come from the whole dose curve; as a rule, active = well fitted inhibition curve with a large enough effect; inconclusive = small, poorly fitted or top-dose-only effect; inactive = no such curve, though single readings can be large or run the other way. Where the call is inconclusive, the potency comes from a doubtful curve fit.
# Assay: Primary qHTS for Inhibitors of ATXN expression; note: nearly all actives have a fitted effect of over 55% in size
# Settings: HEK-293 ATXN2-luciferase reporter, luminescence, 24 h; activity change, negative = inhibition: at 57 µM (top of the series)
# How it was run: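 qHTS (up to 57 uM final) was run with 24 h compound exposure of reporter cells at 37 °C. Each well was multiplexed: SteadyGlo luminescence measured ATXN2-luciferase expression after a fluorogenic Gly-Phe-AFC viability readout (25 uM final).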
# % is set by controls: 0 for no effect and ±100 for the full control effect; potency is the fitted concentration of half-maximal effect; tags give direction and shape of the fitted curve.
SMILES,Potency,"activity change, negative = inhibition"
COc1cc2[nH]c(=O)n(CCC(=O)N3CCN(c4cc(Cl)ccc4C)CC3)c(=O)c2cc1OC,"inconclusive: 39.8 µM [inhibitor, partial curve, poor fit]",–
Cc1cc(SCC(=O)Nc2cccc(S(=O)(=O)NC3=NCCCCC3)c2)c(C)cc1Br,"inconclusive: 37.7 µM [inhibitor, single point]",–
Cc1cc(C)cc(N=Cc2[nH]c3ccc(Br)c(Cl)c3c2O)c1,"inconclusive: 31.6 µM [inhibitor, single point]",–
Cc1cccnc1C(NC(=O)C1CCN(Cc2ccc(Cl)cc2)CC1)c1ccc(F)cc1 (centres undefined),"inconclusive: 28.2 µM [inhibitor, single point]",–
CC(C)c1ccc(NS(=O)(=O)c2ccc3[nH]cc(C(=O)NC4CCCC4)c(=O)c3c2)cc1,"inconclusive: 39.8 µM [inhibitor, single point]",–
CC(=O)N(C)c1ccc(NC(=O)Cc2cccc3ccccc23)cc1,–,inactive: 21%
CC(C)C(=O)N1CCN(c2ccc(NC(=O)c3ccc([N+](=O)[O-])o3)cc2Cl)CC1,"inconclusive: 18.9 µM [inhibitor, single point]",–
CN(Cc1ccccc1F)C(=O)c1sccc1-c1ccccc1,–,inactive: 10.2%
Cc1cc(NC(=O)CN2C(=O)C(C)(C)c3ccccc32)ccc1Br,"inconclusive: 31.6 µM [inhibitor, single point]",–
CCCCCCCNC(=O)C1(CC2CC(c3cccc(Br)c3)=NO2)CCNCC1 (centres undefined),"inconclusive: 31.6 µM [inhibitor, single point]",–
CCC1=C(CC2NCCc3ccccc32)CC2c3cc(OC)c(OC)cc3CCN2C1 (centres undefined),active: 8.91 µM,–
COc1ccc(C(=O)N/C(=C\c2ccco2)C(=O)NC2CCS(=O)(=O)C2)cc1 (centres undefined),–,inactive: -0.495%
O=c1nc(/C=C/c2cc([N+](=O)[O-])ccc2Cl)cc(C(F)(F)F)[nH]1,"inconclusive: 39.8 µM [inhibitor, single point]",–
CN1CCN(C2Cc3ccc(Cl)cc3Sc3ccc(F)cc32)CC1 (centres undefined),"inconclusive: 39.8 µM [inhibitor, single point]",–
Cc1cc(CN(C)C(=O)c2ccc(OC3CCN(CCc4ccccc4)CC3)cc2)on1,–,inactive: -11.4%
O=C(Nc1ccc(N2CCOCC2)cc1)c1cnccn1,active: 2.51 µM,–
Cc1ccccc1C(=O)N1CCC(c2nc3ccccc3s2)CC1,"inconclusive: 28.2 µM [inhibitor, partial curve, poor fit]",–
O=C(NC(c1ccc(F)cc1)c1ccc2ccccc2n1)C1CCN(CCOc2ccc(Cl)cc2Cl)CC1 (centres undefined),"inconclusive: 39.8 µM [inhibitor, single point]",–
Cc1ccc(CS(=O)(=O)c2nc3c(c(N(C)C)n2)CCCC3)cc1,–,inactive: 15.9%
CCCN1CCN(CC(=O)Nc2nncs2)CC1,–,inactive: 3.04%
Cc1nc(Nc2n[nH]c3c2CN(C(=O)N[C@H](CN(C)C)c2ccccc2)C3(C)C)c2sccc2n1,active: 17.2 µM,–
COc1cc(NC(=O)c2nnn(Cc3ccc(F)cc3)c2N)cc(OC)c1,"inconclusive: 1.26 µM [inhibitor, full curve]",–

SMILES,Potency,"activity change, negative = inhibition"
COc1ccccc1-c1cc2nc(-c3ccccc3)cc(N3CCN(C(=O)c4ccoc4)CC3)n2n1,"inconclusive: 20 µM [inhibitor, partial curve, poor fit]",–
c1ccc(CN2CCN(c3ncnc4c3[nH]c3ccccc34)CC2)cc1,"inconclusive: 14.1 µM [inhibitor, partial curve, poor fit]",–
Cc1cc(Sc2nnc(N)s2)c2ccccc2n1,"inconclusive: 39.8 µM [inhibitor, single point]",–
COC(=O)c1ccc(NC(=O)CSc2nc(=O)n(Cc3ccco3)c3c2CCC3)cc1,"inconclusive: 20 µM [inhibitor, single point]",–
COC(=O)CNC(=O)C1CCN(C(=O)OCc2ccccc2)CC1,"inconclusive: 28.2 µM [inhibitor, partial curve, poor fit]",–
Cc1ccc(C(=O)/C=C2\NCC(C)NC2=O)cc1 (centres undefined),"inconclusive: 10 µM [inhibitor, partial curve, poor fit]",–
Cc1ccc2ccccc2c1CSc1nc(N)nc2c1ncn2CC(C)C,"inconclusive: 42.3 µM [inhibitor, single point]",–
CCn1cc(-c2ccnc3[nH]c(-c4cccc(CN(C)C)c4)cc23)c(-c2ccc(NC(=O)N(C)C)cc2)n1,"inconclusive: 43.2 µM [inhibitor, single point]",–
CCN1/C(=C/c2ccc3cc(C)ccc3[n+]2CC)Sc2cc(C)c(C)cc21,"inconclusive: 10.6 µM [inhibitor, partial curve, poor fit]",–
CCCCN(C(=O)c1cccc2c(=O)c(C)c(-c3ccccc3)oc12)c1ccccc1,"inconclusive: 12.6 µM [inhibitor, partial curve, poor fit]",–
COc1ccc(NS(=O)(=O)c2ccc3oc(SCc4ccc(F)cc4)nc3c2)cc1,–,inactive: -12.7%
c1ccc(-c2csc3ncn4nnnc4c23)cc1,"inconclusive: 11.2 µM [inhibitor, partial curve, poor fit]",–
COc1ccc(NC(=O)c2c(N)c(C(=O)c3ccc(OC)cc3)n3ccccc23)cc1,–,inactive: 0.775%
CC(C)N1CCc2c(sc(NC(=O)c3ccc(S(=O)(=O)N4CCCCC4C)cc3)c2C(N)=O)C1 (centres undefined),"inconclusive: 8.91 µM [inhibitor, partial curve, poor fit]",–
O=C(NC12CC3CC(CC(C3)C1)C2)c1cccc([N+](=O)[O-])c1,–,inconclusive: -45.5% [inhibitor]
COc1ccc(C)cc1NC(=O)c1ccc2nc(Cc3ccccc3)oc2c1,"inconclusive: 20 µM [inhibitor, partial curve, poor fit]",–
CCCn1c2ccc(F)cc2c2nnc(NN)nc21,"inconclusive: 15 µM [inhibitor, partial curve, poor fit]",–
CCCCCCCCCCCCCCCC[n+]1cccc2ccccc21,"inconclusive: 11.2 µM [inhibitor, partial curve, poor fit]",–
CC(C)NC(=O)N(C)C[C@H]1Oc2cc(C#Cc3ccc(F)cc3)ccc2S(=O)(=O)N([C@H](C)CO)C[C@H]1C,"inconclusive: 39.8 µM [inhibitor, single point]",–
COc1ccccc1C(=O)Nc1c(C(=O)c2ccccc2)oc2ccccc12,–,inactive: 8.95%
CCc1nc2ccc(C(=O)NCc3cccs3)cn2c1N(CC)Cc1cccc(Br)c1,"inconclusive: 25.1 µM [inhibitor, single point]",–
CC(=O)/C(=N\Nc1ccc(C)cc1)Sc1nncn1C,–,inactive: -10.1%

SMILES,Potency,"activity change, negative = inhibition"
CCCOc1ccc(C(=O)NNC(=S)NC(C)=O)cc1,"inconclusive: 10 µM [inhibitor, partial curve]",–
CCOC(=O)N1CCN(S(=O)(=O)c2ccc(C(=O)N(CCCN(C)C)c3nc4ccc(CC)cc4s3)cc2)CC1,"inconclusive: 35.5 µM [inhibitor, single point]",–
COc1ccc(NC(=S)NC(NC(=O)c2cccc(Cl)c2)C(Cl)(Cl)Cl)c([N+](=O)[O-])c1 (centres undefined),"inconclusive: 39.8 µM [inhibitor, single point]",–
CCOC(=O)Cc1csc(NC(=O)Nc2ccc(F)cc2)n1,–,inactive: 5.21%
CCOc1ccc(NC(=S)NCCCN2CCN(c3ccc(OC)cc3)CC2)cc1,–,inactive: -14.1%
Cc1cc(C)cc(CN2CCC(Oc3ccc(C(=O)N4CCCC4)cc3)CC2)c1,–,inactive: -11.3%
CCCCCCCCN1C(=O)[C@H](CC(=O)NCCC(C)C)C[C@@]2(C(=O)OCC)CCCC=C12,"inconclusive: 39.8 µM [inhibitor, single point]",–
COc1ccc(CCNC(=O)c2ccc3c(Cl)c4c(nc3c2)CCCC4)cc1OC,"inconclusive: 12.6 µM [inhibitor, partial curve]",–
Cc1cccc(C(=O)N2CCN(c3ccc(C(F)(F)F)cn3)CC2)c1C,"inconclusive: 17.8 µM [inhibitor, partial curve, poor fit]",–
COc1cccc(C(=O)NCC(=O)N2CCN(c3ccc(C(F)(F)F)cn3)CC2)c1,"inconclusive: 25.1 µM [inhibitor, partial curve, poor fit]",–
CN(C)c1ccc(-c2nc3ccccc3n2C)cc1,"inconclusive: 8.91 µM [inhibitor, partial curve, poor fit]",–
Cc1cc(Cl)cc(Br)c1OCCCNCC(C)O (centres undefined),"inconclusive: 3.98 µM [inhibitor, partial curve, poor fit]",–
Cc1ccccc1Nc1nnc(-c2ccc(C)c(S(=O)(=O)N3CCN(C)CC3)c2)c2ccccc12,"inconclusive: 35.5 µM [inhibitor, partial curve, poor fit]",–
CCN(CC)Cc1oc(CO)cc(=O)c1O,–,inactive: -11.1%
CC(C)(C)NC(=O)C[C@H]1C[C@H](C(=O)N2CCOCC2)[C@@]2(CCC3CCCC3)c3[nH]c4cc(-c5ccco5)ccc4c3CCN2C1=O,"inconclusive: 39.8 µM [inhibitor, single point]",–
CCOc1ccccc1N1CC(c2nc3ccccc3n2CCCOc2ccccc2)CC1=O (centres undefined),–,inactive: -8.75%
Cc1oc(-c2ccc(Cl)cc2)nc1CN1CCC(C(=O)N2CCN(Cc3ccccc3)CC2)CC1,"inconclusive: 28.2 µM [inhibitor, partial curve, poor fit]",–
Cc1ccc(-c2ccccc2[C@@H]2C[C@H]3CN(C)C(=O)[C@]34CCCN24)o1,"inconclusive: 0.532 µM [inhibitor, full curve, poor fit]",–
CCOc1cc(/C=N/NC(=O)c2ccncc2)ccc1OC(=O)c1ccccc1,–,inactive: -6.9%
CN(C)c1ccc(CN2CCc3nc(N4CCN(c5ccccn5)CC4)ncc3C2)cc1,active: 28.2 µM,–
